These results are taken from PubChem BioAssay AID463173 (ICCB-Longwood Screening Facility, Harvard Medical School, 2010).

In all, about 52,000 compounds went through this assay and about 1,700 (3.3%) were called active. Rule as the data show it: active = survival mostly below about 52% (no sharp cut-off); inactive = mostly above about 56%. The list shows a part of the results.

This test concerns Wild type. Nature of the test: S. aureus survival, RN4220 and DeltatarO strains – OD600, teichoic acid synthesis inhibitors, primary screen (AID 463173). Conditions: S. aureus RN4220 wild type/DeltatarO growth, OD600, 18 h, active compounds read low, screened at 18.75 µg/mL (by protocol).
As for `COc1ccc(-c2c3c(=O)n(C)c(=O)n(C)c3c3c(-c4ccccc4)nc4ccccc4n23)cc1`, the survival was inactive: 64%.
The figure for `COc1ccccc1N1CCN(c2cc(N3CCCC3)nc(C)n2)CC1` is inactive: 111%.
The figure for `COc1ccc(Cn2c(C(=O)O)c(CNCc3cccs3)c3ccc(C)cc32)cc1` is inactive: 67%.
Next, `O=C(Nc1ccc2nc(SCC(=O)N3CCOCC3)sc2c1)c1ccc(F)cc1`: inactive: 92%.
`CNC(=O)c1cc2c(n(-c3ccc(C)cc3)c1=O)CC(C)(C)CC2=O`: the survival is inactive: 66%.
With `Cc1cc(C)c(Nc2nn3c(=O)c4cc5c(cc4nc3s2)OCO5)c(C)c1`, the survival is inactive: 74%.
Next, `CNC(=O)C1CC(=O)N(c2ccc(OC)cc2)C1` (centres undefined): inactive: 110%; `COc1cccc(C(=O)Nc2ccc3oc(-c4ccc5ccccc5c4)nc3c2)c1`: inactive: 80%.
Next, `COc1cc(OC)cc(-c2nc3nc(C)c(CCC(=O)Nc4ccc(Cl)cc4)c(C)n3n2)c1`: inactive: 79%.
The figure for `CCCn1cnc2cc(NCc3ccc(OC)cc3OC)ccc21` is inactive: 63%; for `CCOc1ccc(CC(=O)N2CCc3cc(OC)c(OC)cc3C2COc2ccc3c(C)cc(=O)oc3c2)cc1` (centres undefined) it is inactive: 92%; for `CC(C)CC(=O)Nc1ccccc1-c1nnn(CC(=O)N2CCc3ccccc3C2)n1` it is inactive: 103%.
`Oc1ccc(NCc2ccc(OCc3ccccc3)cc2)cc1`: the survival was inactive: 87%.
For `Cc1cc(=O)oc2cc(OCC(=O)Nc3ccc(O)c(C(=O)O)c3)ccc12`, the survival was inactive: 75%.
Next, `Cc1ccc(CNC(=O)CS(=O)(=O)Cc2nc(-c3ccccc3C)oc2C)cc1`: inactive: 127%.
Next, `CCCCCn1c(=O)[nH]c2cc(C(=O)NCc3ccccc3)ccc2c1=O`: inactive: 83%; `CCCOc1ccc(NC(=O)C(=O)NCCCN2CCOCC2)cc1`: inactive: 75%.
The figure for `COC(=O)CNC(=O)c1cc2sccc2n1Cc1ccccc1` is inactive: 99%.
With `CCOc1ccc(NC(=O)CCc2c(C)nc3cc(-c4ccc(Cl)cc4)nn3c2C)cc1`, the survival is inactive: 74%.
The figure for `CC(C)CNS(=O)(=O)c1ccc(N2CCCCS2(=O)=O)cc1` is inactive: 84%; for `Cc1cccc(-c2noc(CNC(=O)c3ccccc3Br)n2)c1` it is inactive: 92%; for `Cc1ccc(NC(=O)c2sc(-n3nc(C)c(Cc4ccc5c(c4)OCO5)c3C)nc2C)cc1Cl` it is inactive: 121%.
The figure for `COc1ccc(CNC(=O)Cc2c(C)c3c(cc(C)c4c(C)c(C)oc43)oc2=O)cc1OC` is inactive: 89%; for `Cc1cccc(Cn2c(SCc3ccc(C(=O)NC4CCCC4)cc3)nc3ccncc32)c1` it is inactive: 76%.
Next, `CCN(CC)S(=O)(=O)c1ccc2c(c1)N(CC(=O)NCCCN1CCN(c3cc(Cl)ccc3C)CC1)C(=O)CO2`: inactive: 65%.
`CC1CCN(S(=O)(=O)c2ccc3c(c2)oc(=O)n3CC(=O)O)CC1`: the survival was active: -3%.
The figure for `COc1ccc(CC(=O)Nc2ccc3nc(N4CCCCC4)cc(C)c3c2)cc1` is inactive: 86%; for `COc1ccc(Cn2c(=O)c3ccccc3n3c(-c4cccc(OC)c4OC)nnc23)cc1` it is inactive: 87%; for `Cc1cccc(NC(=O)C2CCN(c3cnccn3)CC2)c1` it is inactive: 93%.
`CCOC(=O)c1c(NC(C)=O)c2c3c(sc2n1Cc1nc(-c2ccccc2Cl)oc1C)CCCC3`: the survival is inactive: 127%.
For the compound `Cc1ccc(CNC(=O)c2cc3c(s2)-c2c(C)cccc2OC3)cc1`, the survival is inactive: 96%.
Take `COc1ccc2c(c1)c1c(c(=O)n(Cc3ccccc3)c(=O)n1CC(=O)NCc1ccccc1)n2C`: the survival was inactive: 119%.
The figure for `Cc1cc(C)cc(NC(=O)N2CCN(c3cc(-c4noc(C)n4)ccc3C)CC2)c1` is inactive: 76%; for `COc1ccc(CNCc2c(C(=O)O)n(Cc3ccc(F)cc3)c3cc(C)ccc23)cc1OC` it is inactive: 80%; for `CN(C)CCN(Cc1ccco1)C(=O)c1oc2ccccc2c1NC(=O)c1cccc(F)c1` it is inactive: 121%.
Next, `CCOCCCNC(=O)c1ccc(-n2c(-c3ccccc3)cc3c2CCCCC3)cc1`: inactive: 96%.
In the case of `CCC(=O)N1CCc2cc(Br)cc(S(=O)(=O)CCC(=O)Nc3cccc(C)c3C)c21`, the survival was inactive: 161%.
The figure for `COCCn1c(C)cc(O)c(C(c2ccc(F)cc2)N2CCN(c3ccccc3)CC2)c1=O` (centres undefined) is inactive: 60%; for `CCOC(=O)c1c(C)c(-c2ccccc2)n(CC(=O)NCCc2cccc(C)c2)c1C` it is inactive: 87%; for `COc1ccc(CC(=O)NCCS(=O)(=O)N2CCN(c3ccc(F)cc3)CC2)cc1OC` it is inactive: 84%.
Next, `O=C(CSc1nc(=O)[nH]c2c1CCCC2)NCc1ccc(F)cc1`: inactive: 68%.
The figure for `CCNC(=O)c1c(NC(=O)c2nc(S(=O)(=O)CC)ncc2Cl)sc2c1CCCC2` is inactive: 45%.
As to `COc1ccccc1NC(=O)c1sc2nc3c(cc2c1N)CN(Cc1ccccc1)CC3`, the survival is inactive: 103%.
Next, `N#Cc1ccccc1Cn1cnc2nc3c(cc2c1=O)CCCC3`: inactive: 75%; `CCc1nc(C)cn1S(=O)(=O)c1ccc(Cl)c(Cl)c1OC`: inactive: 77%; `Cc1cccc(C(=O)NC2=NC(c3ccc(Cl)cc3)CC(=O)N2)c1` (centres undefined): inactive: 79%.
The figure for `CCCOc1ccc(C(=O)Nc2ccc(NC(=O)c3ccccc3)c(C)c2)cc1` is inactive: 69%; for `CCc1cc(=O)[nH]c(SCc2nc(-c3ccccc3)no2)n1` it is inactive: 87%.
The figure for `Cc1cccc(CC(=O)NCc2nc3cccnc3n2Cc2ccc(F)cc2)c1` is inactive: 64%; for `Cc1nnc2c(N3CCN(c4ccccc4F)CC3)nc3ccc(C(=O)c4ccccc4)cc3n12` it is inactive: 74%; for `CS(=O)(=O)Nc1ccccc1C(=O)OCc1cc(=O)n2nc(C3CCCCC3)sc2n1` it is inactive: 79%.
As for `Cc1cc(F)ccc1NC(=O)CS(=O)(=O)c1cccc2nsnc12`, the survival is inactive: 73%.
Next, `Cc1ccccc1Nc1c(-c2ccccc2)nc2cccc(C)n12`: inactive: 73%; `O=C(Cn1cnc2c(nc3n2CCCCC3)c1=O)Nc1ccc(F)c(Cl)c1`: inactive: 124%.
Next, `CCOC(=O)C1CCC(CN(Cc2ccc(OC)cc2)S(=O)(=O)c2ccc(F)c(C(=O)Nc3c(C)cccc3C)c2)CC1` (centres undefined): inactive: 72%; `O=C(Nc1cccc(Cl)c1)C1CCCN(c2ncnc3c2nc2n3CCCCC2)C1` (centres undefined): inactive: 36%.
As for `CC(C)c1ccc(NC(=O)N2CCC(c3nc4ccccc4o3)CC2)cc1`, the survival is inactive: 102%.
Next, `Nc1nnc(CCC(CCc2nnc(N)s2)(CCc2nnc(N)s2)C(=O)c2ccccc2)s1`: inactive: 112%; `COc1ccc(N2CC(NC(=O)C3CCCC3)CC2=O)cc1OC` (centres undefined): inactive: 126%.
The figure for `COc1ccc(CNc2nc(SCc3ccccc3Cl)nc3ccccc23)cc1` is inactive: 101%; for `CSc1ccc(CCNC(=O)c2cc3cc(S(=O)(=O)N4CCCCC4)ccc3n2C)cc1` it is inactive: 53%.
Take `CCN(C(=O)c1cn(CC(C)C)c(=O)c2cc(OC)c(OC)cc12)c1cc(OC)ccc1OC`: the survival was inactive: 80%.
On to `CC(C)c1ccc(NC(=O)Cn2nnc(C(=O)NCc3ccc(Cl)cc3)c2N)cc1`, for which the survival was inactive: 66%.
In the case of `COc1ccc2c(c1)sc1ncc(C(=O)NCc3cccc(C)c3)c(=O)n12`, the survival was inactive: 66%.
The figure for `CCN(CC)S(=O)(=O)c1ccc(-c2nnc(SCC(=O)Nc3nc4ccccc4s3)o2)cc1` is inactive: 108%; for `CCN(CC)C(=O)N1c2ccccc2Sc2ccccc21` it is inactive: 108%; for `CC1CCCN(S(=O)(=O)c2cc3c4c(c2)CC(=O)N4CCC3)C1` (centres undefined) it is inactive: 81%.
`Cn1nc(C(=O)N2CCN(c3ccc(F)cc3)CC2)c2c1-c1ccccc1SC2`: the survival is inactive: 89%.
In the case of `COc1ccc(CCNC(=O)c2cn(C)c3ccc(S(=O)(=O)N(C)C)cc3c2=O)cc1OC`, the survival was inactive: 80%.
The figure for `CCc1ccc(C(=O)c2cn(CC(=O)Nc3cc(F)ccc3F)c3nc(C)ccc3c2=O)cc1` is inactive: 135%.
Next, `CC1CCCCN1C(=O)CCS(=O)(=O)c1cc2c(cc1Cl)NC(=O)CO2` (centres undefined): inactive: 87%; `COc1cccc(CNCCCSc2nnnn2C)c1OC`: inactive: 98%.
The figure for `COc1ccc(NC(=O)CCc2nnc3n(Cc4ccc(C)cc4)c(=O)c4ccccc4n23)cc1` is inactive: 92%.
With `CCc1ccccc1NC(=O)Cn1ccn(Cc2ccccc2)c(=O)c1=O`, the survival was inactive: 84%.
The figure for `O=C(NC1CCS(=O)(=O)C1)c1ccccc1C(=O)c1ccccc1` (centres undefined) is inactive: 107%; for `Cc1cccc(C(=O)N2CCc3cc(CNS(=O)(=O)c4ccc(F)c(Cl)c4)ccc32)c1` it is inactive: 78%; for `CCS(=O)(=O)c1nc(S(=O)(=O)c2ccc(C)cc2)c(NC)s1` it is inactive: 82%.
Turning to `COc1ccc(NS(=O)(=O)c2ccc3[nH]c4c(c3c2)CCCCC4)cc1`, the survival was inactive: 127%.
Next, `CC(=O)Nc1c(C)nn(-c2ccccc2)c1N1CCC(C(=O)Nc2ccccc2F)CC1`: inactive: 57%.
The figure for `Cn1c2ccccc2c2cnn(CC(=O)NCCCN3CCN(c4ccccc4F)CC3)c(=O)c21` is inactive: 84%.
The figure for `Cc1cc(N)n2ncc(-c3ccccc3)c2n1` is inactive: 114%; for `O=C(CN1CCC(NC(=O)NC2CCCCC2)CC1)Nc1cccc(I)c1` it is inactive: 99%; for `COc1ccc(CCNC(=O)c2ccc3c(c2)ncn3-c2ccc(C(C)C)cc2)cc1OC` it is inactive: 80%.
Take `CC(C)c1ccc2occ(CC(=O)N(Cc3ccc(F)cc3)C3CCS(=O)(=O)C3)c2c1` (centres undefined): the survival was inactive: 76%.
Next, `Cc1cc(/C(O)=C2\C(=O)C(=O)N(CCCN(C)C)C2c2ccc(O)cc2)ccc1OCC(C)C` (centres undefined): inactive: 112%; `O=C(Nc1ccccc1)N(Cc1cccc(Cl)c1)c1ccccn1`: inactive: 75%; `CC(=O)c1ccc(N2CCN(C(=O)Nc3ccc(C(C)C)cc3)CC2)cc1`: inactive: 85%.
Next, `COc1ccc(NC(=O)c2ccco2)cc1NC(=O)c1c(OC)cccc1OC`: inactive: 67%; `CCC(=O)NCC1COc2ccccc2O1` (centres undefined): inactive: 109%.
